Structures are written as SMILES. In all, about 50,000 compounds went through this assay and about 800 (1.6%) showed an effect of 50% or more. Some of the results follow.

We go through 29 molecules from PubChem BioAssay AID1240 (Sanford-Burnham Center for Chemical Genomics, 2008).

The experiment addresses Bcl-2-like protein 10 (Homo sapiens) (UniProt Q9HD36). The experiment in a line: Phenotype converters, Bcl-B/TR3 peptide binding displacement, primary biochemical FP (AID 1240).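 Note: 0% = Bcl-B with tracer peptide and DMSO and 100% = tracer peptide lacking Bcl-B.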 Particulars: GST-Bcl-B / FITC-TR3 peptide fluorescence polarization; stronger effect = higher value; compound at 3.75 mg/L. On the technique in general: Polarisation of emitted light reports the rotation of a fluorescent probe.
Sequence of UniProt Q9HD36 (Q9HD36 whole entry, looked up): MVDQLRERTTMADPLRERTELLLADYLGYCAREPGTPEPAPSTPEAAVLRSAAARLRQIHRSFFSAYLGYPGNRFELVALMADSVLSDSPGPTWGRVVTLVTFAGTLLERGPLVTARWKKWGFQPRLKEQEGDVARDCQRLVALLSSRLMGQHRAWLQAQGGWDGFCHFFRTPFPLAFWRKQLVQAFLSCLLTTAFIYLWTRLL
As for `COc1cc(OC)cc(C(=O)N2CCN(S(=O)(=O)c3ccc(Cl)cc3)CC2)c1`, the displacement came out at 1.7%. The value for `CC(C)c1ncc(C(O)c2ccc(N(C)C)cc2)n1C` (centres undefined) was 9.4%.

`Cc1onc(-c2ccccc2)c1C(=O)Nc1sc2c(c1C(N)=O)CCCC2`: the displacement is -9.6%. The value for `COc1cc(-c2nc3ccccn3c2/N=C/c2cccc([N+](=O)[O-])c2O)ccc1O` was 1.8%; that for `NS(=O)(=O)c1ccc(N=C2c3ccccc3C(=O)C2c2ccccc2)cc1` (centres undefined) was 3.9%; that for `COC(=O)c1ccc(Oc2nc(N(C)C)nc(N(C)C)n2)cc1` was -3.3%. The value for `COc1c(Cl)cc(Cl)cc1/C=C/c1cc(C(F)(F)F)[nH]c(=O)n1` was -5.2%; that for `O=C(Nc1ccc(Cl)c(Cl)c1)Nc1nnc(-c2ccccc2Cl)s1` was 9.9%; that for `CCOc1ccc(NC(=O)CN(c2ccc(C)cc2)S(=O)(=O)c2ccc(OC)c(OC)c2)cc1` was 8.7%.

With `CCOC(=O)c1c(-c2ccccc2)csc1NC(=O)c1cc2ccccc2oc1=O`, the displacement was -7.7%. The value for `O=C1CC(c2ccccc2F)c2cc(Br)c3ccccc3c2N1` (centres undefined) was -8.7%. As for `CC1=C(C(=O)OCCc2ccccc2)C(c2ccccc2[N+](=O)[O-])C2=C(CCCC2=O)N1` (centres undefined), the displacement is -11.6%.

`COc1ccc(N(CC(=O)N2CCOCC2)S(=O)(=O)c2ccc(C)cc2)c(OC)c1`: the displacement is 4.5%. On to `Cc1sc(NC(=O)CCN2C(=O)c3ccccc3C2=O)nc1-c1ccccc1`, for which the displacement is -11.5%. The value for `O=C1NN(c2ccccc2)C(=O)/C1=C/c1cccc(Br)c1` was 21.7%; that for `CC1(c2ccccc2)CC(C)(C)N(C=O)c2ccccc21` (centres undefined) was -8.9%. The value for `Cc1cccc(-n2c(O)c(C=Nc3ccccc3N)c(=O)[nH]c2=O)c1` was -24.6%; that for `O=C(Nc1ccc(Cl)c(C(F)(F)F)c1)c1ccc(Br)cc1` was 4.1%; that for `CC(=O)C1=C(O)C(=O)N(CCN2CCNCC2)C1c1ccccc1F` (centres undefined) was -21.4%. The value for `Cc1ccc(/C(N)=N/OC(=O)c2ccc(Cl)cc2Cl)cc1` was 1.7%; that for `CCNC(=O)C(=O)Nc1ccccc1OC` was 10.1%; that for `Cc1cc(Nc2ccc3c(c2)n(C)c(=O)n3C)n2c(nc3ccccc32)c1C#N` was 22.5%.

As to `CCCCNc1ncnc2sc3c(c12)CCCC3`, the displacement came to 18.4%. The value for `Cc1ccc(C(=O)NN2C(=O)c3ccc(S(=O)(=O)c4ccc(C(=O)O)cc4)cc3C2=O)cc1` was 1.9%. `Cc1ccc(C)c(N2C(=O)C3C4C=CC(C4=C4CCCCC4)C3C2=O)c1` (centres undefined): the displacement was found to be 2.8%. The value for `COc1ccc(C2CC(c3ccccc3)=NN2C(C)=O)cc1` (centres undefined) was 13.6%. `COc1c(Cl)cc(C(=O)Nc2ccc([N+](=O)[O-])cc2C)cc1Cl`: the displacement worked out at 0.3%.

Consider `Cc1c(C(=O)Nc2cccc(C(F)(F)F)c2)cccc1[N+](=O)[O-]`, for which the displacement is -8.4%.

For the molecule `O=[N+]([O-])c1ccc(NCCNCCO)c(Cl)c1`, the displacement turned out to be 13.5%.
